From the supplement of paper PMC7826260
Some of the results follow. Each Rep nickase domain was tested in vitro on the same pool of single strands for 1 h at 37 °C with 3 µM enzyme; only the middle of the 90-letter strands is printed. The score is log2 (uncut reads / reads without enzyme); more negative means more cut, near 0 not cut, and no call is made. Reads are scaled to the total; uncut strands gain when others are lost, and binding without cutting may add a little.

How the values were obtained:
Assay in all cases: uncleaved DNA left, log2 of reads against the no-enzyme library (log2 ratio); higher = less cleavage (more negative = more Rep cleavage of the k-mer); sequences stand for … in CTCGTCCG…ACCGGAGA
[1] = system: T1, Rep nickase domain of Muscovy duck circovirus
T1 sequence (protein, residues 1-111, tag omitted): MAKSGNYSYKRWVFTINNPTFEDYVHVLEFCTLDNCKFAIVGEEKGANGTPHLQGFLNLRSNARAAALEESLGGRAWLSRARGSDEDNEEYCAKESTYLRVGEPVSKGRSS
Protocol: (§1)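 A pool of 90-nt single-stranded DNAs with seven random bases just before the constant AC of the nick site (name = the seven bases) was cut by 3 µM recombinant His6-SUMO-tagged Rep nickase domain (300 nM DNA, 50 mM HEPES pH 8.0, 50 mM NaCl, 1 mM MnCl2, 1 h, 37 °C, three replicates). Uncut DNA was amplified and sequenced.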

[2] = system: T2, Rep nickase domain of banana bunchy top virus
T2 sequence (protein, residues 1-94, tag omitted): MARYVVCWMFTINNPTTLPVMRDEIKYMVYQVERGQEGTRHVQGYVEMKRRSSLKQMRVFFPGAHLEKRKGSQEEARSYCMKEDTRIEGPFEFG
Protocol: as §1

[3] = system: T3, Rep nickase domain of cabbage leaf curl virus
T3 sequence (protein, residues 1-116, tag omitted): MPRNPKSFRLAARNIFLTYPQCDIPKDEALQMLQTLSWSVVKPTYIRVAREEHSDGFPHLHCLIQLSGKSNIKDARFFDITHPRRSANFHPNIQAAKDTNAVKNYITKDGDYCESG
Protocol: as §1

[4] = system: T4, Rep nickase domain of chickpea chlorotic dwarf virus
T4 sequence (protein, residues 1-124, tag omitted): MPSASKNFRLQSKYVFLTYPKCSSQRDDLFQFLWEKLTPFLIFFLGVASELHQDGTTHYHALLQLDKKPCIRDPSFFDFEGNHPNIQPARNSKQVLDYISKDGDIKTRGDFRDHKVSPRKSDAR
Protocol: as §1

[5] = system: T5, Rep nickase domain of faba bean necrotic yellows virus
T5 sequence (protein, residues 1-98, tag omitted): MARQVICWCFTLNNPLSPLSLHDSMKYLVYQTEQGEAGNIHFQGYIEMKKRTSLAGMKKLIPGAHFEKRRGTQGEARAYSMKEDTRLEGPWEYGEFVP
Protocol: as §1

[6] = system: T6, Rep nickase domain of maize striate mosaic virus
T6 sequence (protein, residues 1-117, tag omitted): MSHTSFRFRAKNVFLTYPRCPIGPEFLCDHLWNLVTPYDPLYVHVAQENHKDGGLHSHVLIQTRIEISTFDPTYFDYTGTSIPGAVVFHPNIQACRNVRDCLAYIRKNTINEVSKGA
Protocol: as §1

[7] = system: T7, Rep nickase domain of porcine circovirus 2
T7 sequence (protein, residues 2-116, tag omitted): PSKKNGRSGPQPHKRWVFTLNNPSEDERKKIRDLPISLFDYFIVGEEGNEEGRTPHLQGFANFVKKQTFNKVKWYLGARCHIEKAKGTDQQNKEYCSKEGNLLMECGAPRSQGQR
Protocol: as §1

[8] = system: T8, Rep nickase domain of tomato golden mosaic virus
T8 sequence (protein, residues 1-124, tag omitted): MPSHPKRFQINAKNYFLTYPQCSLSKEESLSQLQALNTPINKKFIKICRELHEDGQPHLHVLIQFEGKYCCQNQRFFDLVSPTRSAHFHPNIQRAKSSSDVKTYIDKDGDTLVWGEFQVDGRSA
Protocol: as §1

[9] = system: T9, Rep nickase domain of tomato yellow leaf curl virus
T9 sequence (protein, residues 1-136, tag omitted): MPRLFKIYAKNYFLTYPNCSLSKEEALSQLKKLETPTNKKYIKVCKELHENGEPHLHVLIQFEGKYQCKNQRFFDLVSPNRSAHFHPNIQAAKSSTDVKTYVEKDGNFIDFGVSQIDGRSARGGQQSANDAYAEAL
Protocol: as §1

[10] = system: T10, Rep nickase domain of wheat dwarf virus
T10 sequence (protein, residues 1-137, tag omitted): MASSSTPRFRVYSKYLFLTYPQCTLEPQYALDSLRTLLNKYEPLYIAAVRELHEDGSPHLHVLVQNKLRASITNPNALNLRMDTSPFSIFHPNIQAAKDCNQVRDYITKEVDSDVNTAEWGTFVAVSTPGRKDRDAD
Protocol: as §1

TCCACGT
uncleaved DNA left (log2) [1]: 0.0261
uncleaved DNA left (log2) [2]: 0.106
uncleaved DNA left (log2) [3]: 0.24
uncleaved DNA left (log2) [4]: -0.0444
uncleaved DNA left (log2) [5]: 0.11
uncleaved DNA left (log2) [6]: 0.0722
uncleaved DNA left (log2) [7]: 0.0796
uncleaved DNA left (log2) [8]: -0.0333
uncleaved DNA left (log2) [9]: 0.0111
uncleaved DNA left (log2) [10]: -0.0172

CAAAGGC
uncleaved DNA left (log2) [1]: -0.0282
uncleaved DNA left (log2) [2]: -0.00847
uncleaved DNA left (log2) [3]: -0.191
uncleaved DNA left (log2) [4]: -0.29
uncleaved DNA left (log2) [5]: -0.00895
uncleaved DNA left (log2) [6]: -1.08
uncleaved DNA left (log2) [7]: 0.077
uncleaved DNA left (log2) [8]: 0.00419
uncleaved DNA left (log2) [9]: -0.0368
uncleaved DNA left (log2) [10]: -0.106

CAAGCTA
uncleaved DNA left (log2) [1]: -0.0157
uncleaved DNA left (log2) [2]: -0.158
uncleaved DNA left (log2) [3]: 0.0241
uncleaved DNA left (log2) [4]: 0.585
uncleaved DNA left (log2) [5]: -0.0108
uncleaved DNA left (log2) [6]: 1.12
uncleaved DNA left (log2) [7]: -0.0192
uncleaved DNA left (log2) [8]: -0.122
uncleaved DNA left (log2) [9]: -0.31
uncleaved DNA left (log2) [10]: -0.11

CTCACAA
uncleaved DNA left (log2) [1]: 0.125
uncleaved DNA left (log2) [2]: 0.067
uncleaved DNA left (log2) [3]: 0.0952
uncleaved DNA left (log2) [4]: -0.305
uncleaved DNA left (log2) [5]: 0.184
uncleaved DNA left (log2) [6]: -0.427
uncleaved DNA left (log2) [7]: 0.112
uncleaved DNA left (log2) [8]: -0.0622
uncleaved DNA left (log2) [9]: 0.0295
uncleaved DNA left (log2) [10]: 0.212

GTGGGCG
uncleaved DNA left (log2) [1]: -0.0666
uncleaved DNA left (log2) [2]: -0.0241
uncleaved DNA left (log2) [3]: -0.372
uncleaved DNA left (log2) [4]: 0.624
uncleaved DNA left (log2) [5]: 0.0857
uncleaved DNA left (log2) [6]: -0.238
uncleaved DNA left (log2) [7]: 0.181
uncleaved DNA left (log2) [8]: 0.0471
uncleaved DNA left (log2) [9]: -0.0244
uncleaved DNA left (log2) [10]: -0.133

CCGGTAC
uncleaved DNA left (log2) [1]: 0.00998
uncleaved DNA left (log2) [2]: -0.0311
uncleaved DNA left (log2) [3]: 0.235
uncleaved DNA left (log2) [4]: 0.275
uncleaved DNA left (log2) [5]: -0.0924
uncleaved DNA left (log2) [6]: 1.05
uncleaved DNA left (log2) [7]: 0.139
uncleaved DNA left (log2) [8]: 0.0381
uncleaved DNA left (log2) [9]: -0.0517
uncleaved DNA left (log2) [10]: 0.0643

ATAACAC
uncleaved DNA left (log2) [1]: -0.085
uncleaved DNA left (log2) [2]: 0.046
uncleaved DNA left (log2) [3]: -0.621
uncleaved DNA left (log2) [4]: -1.57
uncleaved DNA left (log2) [5]: 0.0113
uncleaved DNA left (log2) [6]: -0.814
uncleaved DNA left (log2) [7]: 0.0403
uncleaved DNA left (log2) [8]: -0.0735
uncleaved DNA left (log2) [9]: -0.0203
uncleaved DNA left (log2) [10]: -0.0425

TCCCGGG
uncleaved DNA left (log2) [1]: 0.047
uncleaved DNA left (log2) [2]: -0.0419
uncleaved DNA left (log2) [3]: 0.315
uncleaved DNA left (log2) [4]: 0.492
uncleaved DNA left (log2) [5]: -0.0691
uncleaved DNA left (log2) [6]: 0.192
uncleaved DNA left (log2) [7]: 0.157
uncleaved DNA left (log2) [8]: 0.0105
uncleaved DNA left (log2) [9]: -0.0668
uncleaved DNA left (log2) [10]: 0.074

CTTCTGA
uncleaved DNA left (log2) [1]: -0.0012
uncleaved DNA left (log2) [2]: 0.0086
uncleaved DNA left (log2) [3]: -0.0418
uncleaved DNA left (log2) [4]: -0.182
uncleaved DNA left (log2) [5]: -0.114
uncleaved DNA left (log2) [6]: -0.582
uncleaved DNA left (log2) [7]: -0.0534
uncleaved DNA left (log2) [8]: -0.0698
uncleaved DNA left (log2) [9]: 0.0381
uncleaved DNA left (log2) [10]: -0.0483

CACCGGG
uncleaved DNA left (log2) [1]: -0.0848
uncleaved DNA left (log2) [2]: -0.0829
uncleaved DNA left (log2) [3]: 0.301
uncleaved DNA left (log2) [4]: 0.492
uncleaved DNA left (log2) [5]: -0.178
uncleaved DNA left (log2) [6]: 0.179
uncleaved DNA left (log2) [7]: 0.00525
uncleaved DNA left (log2) [8]: -0.0815
uncleaved DNA left (log2) [9]: -0.0788
uncleaved DNA left (log2) [10]: -0.17

TTACAGC
uncleaved DNA left (log2) [1]: -0.0264
uncleaved DNA left (log2) [2]: -0.177
uncleaved DNA left (log2) [3]: -0.487
uncleaved DNA left (log2) [4]: -1.6
uncleaved DNA left (log2) [5]: -0.0695
uncleaved DNA left (log2) [6]: -1.13
uncleaved DNA left (log2) [7]: 0.0828
uncleaved DNA left (log2) [8]: -0.278
uncleaved DNA left (log2) [9]: -0.0374
uncleaved DNA left (log2) [10]: -0.113

CCCTGCC
uncleaved DNA left (log2) [1]: -0.164
uncleaved DNA left (log2) [2]: -0.118
uncleaved DNA left (log2) [3]: -0.416
uncleaved DNA left (log2) [4]: -0.566
uncleaved DNA left (log2) [5]: -0.074
uncleaved DNA left (log2) [6]: -0.85
uncleaved DNA left (log2) [7]: -0.209
uncleaved DNA left (log2) [8]: -0.12
uncleaved DNA left (log2) [9]: -0.0505
uncleaved DNA left (log2) [10]: -0.13

GGTACAC
uncleaved DNA left (log2) [1]: 0.0312
uncleaved DNA left (log2) [2]: 0.155
uncleaved DNA left (log2) [3]: 0.814
uncleaved DNA left (log2) [4]: 1.82
uncleaved DNA left (log2) [5]: 0.127
uncleaved DNA left (log2) [6]: 2.19
uncleaved DNA left (log2) [7]: 0.177
uncleaved DNA left (log2) [8]: 0.0745
uncleaved DNA left (log2) [9]: 0.133
uncleaved DNA left (log2) [10]: 0.248

ATTCGTA
uncleaved DNA left (log2) [1]: -0.306
uncleaved DNA left (log2) [2]: -0.142
uncleaved DNA left (log2) [3]: -0.361
uncleaved DNA left (log2) [4]: -1.01
uncleaved DNA left (log2) [5]: 0.00153
uncleaved DNA left (log2) [6]: -1.18
uncleaved DNA left (log2) [7]: -0.528
uncleaved DNA left (log2) [8]: -0.076
uncleaved DNA left (log2) [9]: 0.0114
uncleaved DNA left (log2) [10]: -0.128

TAATACA
uncleaved DNA left (log2) [1]: -2.23
uncleaved DNA left (log2) [2]: 0.094
uncleaved DNA left (log2) [3]: -2.77
uncleaved DNA left (log2) [4]: -3.21
uncleaved DNA left (log2) [5]: -0.0691
uncleaved DNA left (log2) [6]: -2
uncleaved DNA left (log2) [7]: -3.21
uncleaved DNA left (log2) [8]: -2.05
uncleaved DNA left (log2) [9]: -0.0812
uncleaved DNA left (log2) [10]: -2.97
